Test results from patent US20210317231A1 (BYONDIS B V, published 2021).
Positions count from the first letter of the chain named.

T1: human 5T4 oncofoetal antigen (human, UniProt Q13641 32-420)
T1 sequence (looked up): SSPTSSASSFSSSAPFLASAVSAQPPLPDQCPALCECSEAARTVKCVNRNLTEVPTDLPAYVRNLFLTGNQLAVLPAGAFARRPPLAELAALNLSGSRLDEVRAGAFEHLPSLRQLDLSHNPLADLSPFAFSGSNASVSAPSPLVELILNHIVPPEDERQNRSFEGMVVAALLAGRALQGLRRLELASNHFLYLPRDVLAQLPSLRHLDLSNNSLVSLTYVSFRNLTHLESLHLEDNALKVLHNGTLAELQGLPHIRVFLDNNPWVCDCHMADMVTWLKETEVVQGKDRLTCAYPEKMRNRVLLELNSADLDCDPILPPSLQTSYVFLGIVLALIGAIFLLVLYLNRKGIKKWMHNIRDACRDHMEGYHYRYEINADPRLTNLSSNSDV

B1: 833a-vc-seco-DUBA (other)
heavy: EVQLVESGGGLIQPGGSLRLSCAASGIDLSHYVVGWVRQACGKGLEWVSIIYGSGRTYYANWAKGRFTISKDNSKNTLYVRMNSLRAEDTAVYYCARDASVSVYYWGYFDLWGQGTLVTVSS[human IgG1 constant region not shown]
light: AYDMTQSPSSVSASVGDRVTITCQASQSIGSELAWYQQKPGKAPKLLIYRASTLESGVPSRFSGSGSGTDFTLTISSLQPEDFATYYCQQGYTYSEIDNAFGGGTKVEIKRTVAAPSVFIFPPSDEQLKSGTASVVCLLNNFYPREAKVQWKVDNALQSGNSQESVTEQDSKDSTYSLSSTLTLSKADYEKHKVYACEVTHQGLSSPVTKSFNRGEC
modifications: vc-seco-DUBA linker drug on the engineered cysteine at HC 41 (Kabat)
B2: 833b-vc-seco-DUBA (other)
heavy: B1 heavy with I12V, K71R, Y79F, V80L, A87V, Y94F
light: B1 light
modifications: vc-seco-DUBA linker drug on the engineered cysteine at HC 41 (Kabat)
notes: also called 833b ADC
B3: 833c-vc-seco-DUBA (other)
heavy: B1 heavy with V5E, I12V, Q13K, K71R, V80L, R81Q, Q114R
light: B1 light with A1D, Y2I, D3Q, S10T, V11L, D70E, E81D, G103Q
modifications: vc-seco-DUBA linker drug on the engineered cysteine at HC 41 (Kabat)
notes: also called 833c ADC
B4: 833d-vc-seco-DUBA (other)
heavy: QSLEESGGGLVQPGGSLRLSCAASGIDLSHYVVGWVRQACGKGLEWIGIIYGSGRTYYANWAKGRFTISRHNSKNTLYLQMNSLRAEDTAVYYCARDASVSVYYWGYFDLWGQGTLVTVSS[human IgG1 constant region not shown]
light: B1 light with A1D, Y2I, D3Q, V11L, K42Q, D70E, L73F, F83L, G103Q, V107L
modifications: vc-seco-DUBA linker drug on the engineered cysteine at HC 41 (Kabat)
notes: also called 833d ADC
B5: 825a-vc-seco-DUBA (other)
heavy: EVQLVESGGDLAQPGGSLRLSCAVSGIDLSSYGMGWVRQACGKGLEWVSIISRNSVTYYATWAKGRFTISRDNSKNTVYLQMTSLRAEDTALYFCARRATYSGALGYFDIWGQGTLVTVSS[human IgG1 constant region not shown]
light: EIVMTQSPSSLSASVGDRVTITCQASENIYSTLAWYQQKPGKAPKLLIYDAFDLASGVPSRFSGSGSGTDYTLTISSLQPEDFATYYCQQGYSGTNVDNAFGQGTKLEIKRTVAAPSVFIFPPSDEQLKSGTASVVCLLNNFYPREAKVQWKVDNALQSGNSQESVTEQDSKDSTYSLSSTLTLSKADYEKHKVYACEVTHQGLSSPVTKSFNRGEC
modifications: vc-seco-DUBA linker drug on the engineered cysteine at HC 41 (Kabat)
notes: also called 825a ADC
B6: 825c-vc-seco-DUBA (other)
heavy: B5 heavy with V5E, D10G, A12V, Q13K, V24A, V78L, T83N, L92V, F94Y, Q113R
light: B5 light with E1G, I2Y, V3D, L11V, S63K, D70E, Q103G, L107V
modifications: vc-seco-DUBA linker drug on the engineered cysteine at HC 41 (Kabat)
notes: also called 825c ADC
B7: 825b-vc-seco-DUBA (other)
heavy: B5 heavy with V5E, D10G, A12V, Q13K, V24A, V78L, T83N, L92V, F94Y, Q113R
light: B5 light
modifications: vc-seco-DUBA linker drug on the engineered cysteine at HC 41 (Kabat)
notes: also called 825b ADC
B8: 789a-vc-seco-DUBA (other)
heavy: EVKVEESGGGLVQPGGSLRLSCAASGFSLSSYWMSWVRQACGKGLEWVSIIAGRGSTYYASWAKGRFTISKDNSEGMVYLQMNSLRAEDTAVYYCARVSSIYYTFNLWGQGTTVTVSS[human IgG1 constant region not shown]
light: EIVLTQSPSSLSASVGDRVTITCQSSQSVYSNNELSWYQQKPGKAPKLLIYYASTLASGVPSRFSGSGSGTDFTLTISSLQPEDFATYYCQGSYYSGSGWYYAFGQGTKLEIKRTVAAPSVFIFPPSDEQLKSGTASVVCLLNNFYPREAKVQWKVDNALQSGNSQESVTEQDSKDSTYSLSSTLTLSKADYEKHKVYACEVTHQGLSSPVTKSFNRGEC
modifications: chain 1 pos 41: engineered Cys (Kabat HC 41) carrying the vc-seco-DUBA linker drug, written C; average DAR 1.8
notes: also called 789a ADC
B9: H8-vc-seco-DUBA (other)
heavy: QVQLVQSGAEVKKPGASVKVSCKASGYSFTGYYMHWVKQSPGQGLEWIGRINPNNGVTLYNQKFKDRVTMTRDTSISTAYMELSRLRSDDTAVYYCARSTMITNYVMDYWGQGTLVTVSS[human IgG1 constant region not shown]
light: DIVMTQSPDSLAVSLGERATINCKASQSVSNDVAWYQQKPGQSPKLLISYTSSRYAGVPDRFSGSGSGTDFTLTISSLQAEDVAVYFCQQDYNSPPTFGGGTKLEIKRTVAAPSVFIFPPSDEQLKSGTASVVCLLNNFYPREAKVQWKVDNALQSGNSQESVTEQDSKDSTYSLSSTLTLSKADYEKHKVYACEVTHQGLSSPVTKSFNRGEC
modifications: vc-seco-DUBA linker drug, random (non-site specific) attachment through native interchain disulfide bond cysteines
B10: 789b-vc-seco-DUBA (other)
heavy: EVQLLESGGSLVLPGGSLRLSCAASGFSLSSYWMSWVRQACGKGLEWVSIIAGRGSTYYASWAKGRFTISRDNSKNTLYMQMNSLRAEDTALYFCARVSSIYYTFNLWGQGTLVTVSS[human IgG1 constant region not shown]
light: B8 light
modifications: chain 1 pos 41: engineered Cys (Kabat HC 41) carrying the vc-seco-DUBA linker drug, written C; average DAR 1.7
notes: also called 789b ADC
B11: 789c-vc-seco-DUBA (other)
heavy: QSVEESGGGLVQPGGSLRLSCAASGFSLSSYWMSWVRQACGKGLEWIGIIAGRGSTYYASWAKGRFTISRDNSKNTLYLQMNSLRAEDTAVYYCARVSSIYYTFNLWGQGTLVTVSS[human IgG1 constant region not shown]
light: DIVMTQSPDSLAVSLGERATINCQSSQSVYSNNELSWYQQKPGQPPKLLIYYASTLASGVPDRFSGSGSGTDFTLTISSLQAEDVAVYYCQGSYYSGSGWYYAFGGGTKLEIKRTVAAPSVFIFPPSDEQLKSGTASVVCLLNNFYPREAKVQWKVDNALQSGNSQESVTEQDSKDSTYSLSSTLTLSKADYEKHKVYACEVTHQGLSSPVTKSFNRGEC
modifications: chain 1 pos 40: engineered Cys (Kabat HC 41) carrying the vc-seco-DUBA linker drug, written C; average DAR 1.7
notes: also called 789c ADC
B12: 789d-vc-seco-DUBA (other)
heavy: B11 heavy
light: B8 light with E1A, I2Q, Q106G, L110V
modifications: chain 1 pos 40: engineered Cys (Kabat HC 41) carrying the vc-seco-DUBA linker drug, written C; average DAR 1.7
notes: also called 789d ADC

Biological target: T1, human 5T4 oncofoetal antigen
Assay: cell-based or functional assay

Row | Binder | Avg IC50, in vitro cytotoxicity, MDA-MB-468 cells [nM] | Avg IC50, in vitro cytotoxicity, PA-1 cells [nM]
1 | B1 | 0.11 | 0.13
2 | B2 | 0.1 | 0.13
3 | B3 | 0.13 | 0.13
4 | B4 | 0.12 | 0.18
5 | B5 | 0.14 | 0.11
6 | B6 | 0.12 | 0.09
7 | B7 | 0.14 | 0.12
8 | B8 |  | 0.13
9 | B9 | 0.11 | 0.09
10 | B10 | 0.14 | 0.11
11 | B11 | 0.14 | 0.11
12 | B12 | 0.1 | 0.08
